One assay deals with human NK cells. In words: IFN-γ secretion in human NK cells (ELISA). Conditions: IL-2 activated human NK cells, 24 hours, FIG. 22. Further details: unit not given here. Type of assay: cell-based. The procedure: (§1) For cytokine measurement, enzyme-linked immunosorbent assay (ELISA, R&D systems) was performed on the supernatant stored at −20° C. in the following steps:
(§2) (i) The capture antibody was diluted according to the Certificate of Analysis (CoA) and coated on a 96-well plate for 24 hours.
(§3) (ii) The wells were washed with a wash solution, and then blocking was performed for 1 hour with 1% BSA (Bovine serum albumin, Sigma) solution.
(§4) (iii) The wells were washed with a wash solution, and then the samples were treated for 2 hours.
(§5) (iv) The wells were washed with a wash solution, and then the detection antibody was diluted according to the Certificate of Analysis and aliquoted into the wells, and then the wells were treated therewith for 2 hours.
(§6) (v) The wells were washed with a wash solution, and then treated with streptavidin-HRP for 20 minutes.
(§7) (vi) The wells were washed with a wash solution, and then treated with a substrate solution for 20 minutes.
(§8) (vii) The wells were treated with a stop solution, and the absorbance was measured at 450 nm.
Specifically, the human NK cells activated with recombinant human IL-2 (R&D Systems) were diluted to 5×10^5 cells/ml and dispensed in a 96-well plate at 200 μl/well. Recombinant human IL-12, T1.12, T1.01, T1.02 and T1.03 were diluted to 10 nM and dispensed at 20 μl/well. After 24 hours of treatment, the cell supernatant was collected, and the samples were stored at −80° C.

A further assay concerns the target T1, recombinant human FAP (Homo sapiens, UniProt Q12884).
T1 sequence (Q12884 1-760): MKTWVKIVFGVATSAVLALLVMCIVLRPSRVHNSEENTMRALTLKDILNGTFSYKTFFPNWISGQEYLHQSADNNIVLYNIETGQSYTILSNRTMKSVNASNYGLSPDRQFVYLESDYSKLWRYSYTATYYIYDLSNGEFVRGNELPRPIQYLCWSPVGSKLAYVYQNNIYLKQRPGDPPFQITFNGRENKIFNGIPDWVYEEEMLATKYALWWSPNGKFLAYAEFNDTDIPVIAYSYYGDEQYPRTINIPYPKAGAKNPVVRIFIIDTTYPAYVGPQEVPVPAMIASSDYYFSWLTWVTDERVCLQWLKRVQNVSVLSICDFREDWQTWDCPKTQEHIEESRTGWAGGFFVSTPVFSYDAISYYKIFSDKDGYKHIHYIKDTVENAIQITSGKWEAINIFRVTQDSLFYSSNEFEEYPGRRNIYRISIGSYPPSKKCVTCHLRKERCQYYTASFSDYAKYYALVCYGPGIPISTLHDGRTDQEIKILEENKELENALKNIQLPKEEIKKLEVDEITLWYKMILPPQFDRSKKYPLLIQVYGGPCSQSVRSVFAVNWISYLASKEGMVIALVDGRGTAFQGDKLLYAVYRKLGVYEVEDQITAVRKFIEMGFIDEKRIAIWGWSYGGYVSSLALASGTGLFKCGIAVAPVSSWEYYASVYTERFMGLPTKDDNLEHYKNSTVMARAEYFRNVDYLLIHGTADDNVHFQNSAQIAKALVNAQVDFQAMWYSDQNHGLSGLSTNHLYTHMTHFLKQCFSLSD
In words: Surface plasmon resonance binding to recombinant human FAP. The conditions noted are these: SPR, 2 μg/ml protein, FIGS. 7 and 8.

In another assay the target is T2, IL-12 receptor beta 1 (Homo sapiens, UniProt P42701).
T2 construct: purchased Acrobiosystems, Newark, USA
Put plainly: ELISA binding to recombinant human IL-12 receptor. The conditions noted are these: serial dilution from 5 μg/ml, 1 nM IL-12Rβ1-Biotin, FIG. 17. How it is done:
T1.01, T1.02 and T1.03 were immobilized on a plate, and a recombinant human IL-12 receptor protein conjugated with horseradish peroxidase (HRP) was bound. Specifically, the following steps were performed:
(i) T1.01, T1.02, T1.03 and T1.12 were suspended at 5 μg/ml and diluted by serial dilution. The diluted T1.01, T1.02, T1.03 and T1.12 were aliquoted in a 96-well immune plate and treated for 24 hours.
as §3
(iii) The wells were washed with a wash solution, and then treated with 1 nM IL-12 receptor beta 1-biotin (IL-12Rβ1-Biotin; Acrobiosystems, Newark, USA) for 2 hours.
(iv) The wells were washed with a wash solution, and then treated with streptavidin-HRP for 20 minutes.
(v) The wells were washed with a wash solution, and then treated with a substrate solution for 20 minutes.
(vi) The wells were treated with a stop solution, and the absorbance was measured at 450 nm.

For another assay, the system named is human T cells. In words: IFN-γ secretion in human T cells (ELISA). Type of assay: cell-based. The conditions noted are these: anti-CD3 activated human T cells, 48 hours, FIG. 21. The procedure: as §1, §2, §3, §4, §5, §6, §7, §8
Specifically, the human T cells activated with anti-CD3 (OKT3, Invitrogen) were diluted to 5×10^5 cells/ml and dispensed in a 96-well plate at 200 μl/well. Recombinant human IL-12, T1.12, T1.01, T1.02 and T1.03 were diluted to 10 nM and dispensed at 20 μl/well. After 48 hours of treatment, the cell supernatant was collected, and the samples were stored at −80° C.

B1: T1.01: K&H bispecific: anti-hu FAP/hu IL-12, hu IgG1 DANG (seq1, seq2, seq3) (antibody)
heavy: QVQLVQSGAEVKKPGASVKVSCKTSRYTFTEYTIHWVRQAPGQRLEWIGGINPNNGIPNYNQKFKGRVTITVDTSASTAYMELSSLRSEDTAVYYCARRRIAYGYDEGHAMDYWGQGTLVTVSSASTKGPSVFPLAPSSKSTSGGTAALGCLVKDYFPEPVTVSWNSGALTSGVHTFPAVLQSSGLYSLSSVVTVPSSSLGTQTYICNVNHKPSNTKVDKKVEPKSCDKTHTCPPCPAPELLGGPSVFLFPPKPKDTLMISRTPEVTCVVVAVSHEDPEVKFNWYVDGVEVHNAKTKPREEQYGSTYRVVSVLTVLHQDWLNGKEYKCKVSNKALPAPIEKTISKAKGQPREPQVYTLPPSRDELTKNQVSLWCLVKGFYPSDIAVEWESNGQPENNYKTTPPVLDSDGSFFLYSKLTVDKSRWQQGNVFSCSVMHEALHNHYTQKSLSLSPGK
light: DIVMTQSPDSLAVSLGERATINCKSSQSLLYSRNQKNYLAWYQQKPGQPPKLLIFWASTRESGVPDRFSGSGFGTDFTLTISSLQAEDVAVYYCQQYFSYPLTFGQGTKVEIKRTVAAPSVFIFPPSDEQLKSGTASVVCLLNNFYPREAKVQWKVDNALQSGNSQESVTEQDSKDSTYSLSSTLTLSKADYEKHKVYACEVTHQGLSSPVTKSFNRGEC
chain: IWELKKDVYVVELDWYPDAPGEMVVLTCDTPEEDGITWTLDQSSEVLGSGKTLTIQVKEFGDAGQYTCHKGGEVLSHSLLLLHKKEDGIWSTDILKDQKEPKNKTFLRCEAKNYSGRFTCWWLTTISTDLTFSVKSSRGSSDPQGVTCGAATLSAERVRGDNKEYEYSVECQEDSACPAAEESLPIEVMVDAVHKLKYENYTSSFFIRDIIKPDPPKNLQLKPLKNSRQVEVSWEYPDTWSTPHSYFSLTFCVQVQGKSKREKKDRVFTDKTSATVICRKNASISVRAQDRYYSSSWSEWASVPCSGGGGSGGGGSGGGGSRNLPVATPDPGMFPCLHHSQNLLRAVSNMLQKARQTLEFYPCTSEEIDHEDITKDKTSTVEACLPLELTKNESCLNSRETSFITNGSCLASRKTSFMMALCLSSIYEDLKMYQVEFKTMNAKLLMDPKRQIFLDQNMLAVIDELMQALNFNSETVPQKSSLEEPDFYKTKIKLCILLHAFRIRAVTIDRVMSYLNASGGGGSGGGGS[skipping human IgG1 Fc with changes]
With B1, the entries for the “average IFN-γ in supernatant” value in the assay on human NK cells and with human T cells were 205 and 1,115 pg/ml, respectively. The “Binding to recombinant human FAP” value with recombinant human FAP is listed as “may specifically bind to recombinant human FAP”. In the assay with IL-12 receptor beta 1, the “Binding to recombinant human IL-12 receptor protein” value is on record as “bind to the recombinant human IL-12 receptor protein in a concentration dependent manner”.

B2: T1.03: K&H bispecific: anti-hu FAP/hu IL-12 mut2, hu IgG1 DANG (seq1, seq2, seq5) (antibody)
heavy: B1 heavy
light: B1 light
chain: IWELKKDVYVVELDWYPDAPGEMVVLTCDTPEEDGITWTLDQSSEVLGSGKTLTIQVKEFGDAGQYTCHKGGEVLSHSLLLLHKKEDGIWSTDILKDQKEPKNKTFLRCEAKNYSGRFTCWWLTTISTDLTFSVKSSRGSSDPQGVTCGAATLSAERVRGDNKEYEYSVECQEDSACPAAEESLPIEVMVDAVHKLKYENYTSSFFIRDIIKPDPPKNLQLKPLKNSRQVEVSWEYPDTWSTPHSYFSLTFCVQVQGASAREAADRVFTDKTSATVICRKNASISVRAQDRYYSSSWSEWASVPCSGGGGSGGGGSGGGGSRNLPVATPDPGMFPCLHHSQNLLRAVSNMLQKARQTLEFYPCTSEEIDHEDITKDKTSTVEACLPLELTKNESCLNSRETSFITNGSCLASRKTSFMMALCLSSIYEDLKMYQVEFKTMNAKLLMDPKRQIFLDQNMLAVIDELMQALNFNSETVPQKSSLEEPDFYKTKIKLCILLHAFRIRAVTIDRVMSYLNASGGGGSGGGGS[skipping human IgG1 Fc with changes]
As to B2, the results for the “average IFN-γ in supernatant” value in the assay on human NK cells and in the assay on human T cells were 80 and 607 µg/mL, respectively. In addition, the “Binding to recombinant human FAP” value with recombinant human FAP is listed as “may specifically bind to recombinant human FAP”. In the assay with IL-12 receptor beta 1, the “Binding to recombinant human IL-12 receptor protein” value is on record as “bind to the recombinant human IL-12 receptor protein in a concentration dependent manner”.

B3: T1.02: K&H bispecific: anti-hu FAP/hu IL-12 mut1, hu IgG1 DANG (seq1, seq2, seq4) (antibody)
heavy: B1 heavy
light: B1 light
chain: IWELKKDVYVVELDWYPDAPGEMVVLTCDTPEEDGITWTLDQSSEVLGSGKTLTIQVKEFGDAGQYTCHKGGEVLSHSLLLLHKKEDGIWSTDILKDQKEPKNKTFLRCEAKNYSGRFTCWWLTTISTDLTFSVKSSRGSSDPQGVTCGAATLSAERVRGDNKEYEYSVECQEDSACPAAEESLPIEVMVDAVHKLKYENYTSSFFIRDIIKPDPPKNLQLKPLKNSRQVEVSWEYPDTWSTPHSYFSLTFCVQVQGASKREAKDRVFTDKTSATVICRKNASISVRAQDRYYSSSWSEWASVPCSGGGGSGGGGSGGGGSRNLPVATPDPGMFPCLHHSQNLLRAVSNMLQKARQTLEFYPCTSEEIDHEDITKDKTSTVEACLPLELTKNESCLNSRETSFITNGSCLASRKTSFMMALCLSSIYEDLKMYQVEFKTMNAKLLMDPKRQIFLDQNMLAVIDELMQALNFNSETVPQKSSLEEPDFYKTKIKLCILLHAFRIRAVTIDRVMSYLNASGGGGSGGGGS[skipping human IgG1 Fc with changes]
For B3, the “average IFN-γ in supernatant” value is 133 with human NK cells and 845 µg/mL with human T cells. In addition, the “Binding to recombinant human FAP” value in the assay with recombinant human FAP was “may specifically bind to recombinant human FAP”. The “Binding to recombinant human IL-12 receptor protein” value with IL-12 receptor beta 1 is “bind to the recombinant human IL-12 receptor protein in a concentration dependent manner”.

Values taken from patent US20250144178A1, “PHARMACEUTICAL COMPOSITION FOR CANCER TREATMENT COMPRISING FUSION PROTEIN INCLUDING IL-12 AND ANTI-FAP ANTIBODY AND ANTICANCER AGENT” (KANAPH THERAPEUTICS INC., priority 2022, published 2025).
